Test results from the supplement of paper PMC4723716.
Values joined by “and” are separate entries in the source; they are usually repeats but may differ in a detail not shown here. Equal entries are not always repeated. ± gives the uncertainty stated by the source. Whole data set: some 9,900 compounds, median “viability index relative to DMSO control” near 1, cut for the lowest 2% near 0.85. The list shows a part of the results.

system: Plasmodium falciparum NF54 stage V gametocytes; test: viability index relative to DMSO control (fraction); higher = less gametocyte killing; settings: 2.5 µM, library set: Broad Institute DOS, incubation time: 72 h
How it was run: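 Stage V gametocytes of P. falciparum NF54 were held in serum-free screening medium at 0.75% gametocytemia and 1.25% hematocrit, 10 µl per well of a 1,536-well plate, and exposed to compound at 2.5 µM for 72 hr at 37°C under low oxygen. A 3 µl mix of 2.5 µM MitoTracker Red CMXRos with 0.13% saponin was then added for one to two hours, after which one field per well was imaged and red particles of 20–70 µm2 were counted. The viability index equals this count divided by the plate mean from wells given solvent alone.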

Row | SMILES | viability index
1 | O=C(C[C@@H]1CC[C@@H](NC(=O)c2ccc(F)cc2)[C@H](CO)O1)NCCc1ccccc1 | 1.17 ± 0.061
2 | O=C(Nc1cccc(Cl)c1)N1C[C@@H]2[C@H](c3ccccc31)[C@H](CO)N2Cc1cccnc1 | 0.963 ± 0.065
3 | CN1C(=O)c2cc(NC(=O)Cc3cccs3)ccc2OC[C@H]2O[C@H](CC(=O)NCc3ccc(-c4ccccc4)cc3)CC[C@H]21 | 1.19 ± 0.15
4 | COc1ccccc1C(=O)Nc1ccc2c(c1)C(=O)N(C)C[C@@H](OC)[C@H](C)CN(C(C)=O)[C@H](C)CO2 | 1.05 ± 0.15
5 | CO[C@H]1CN(C)C(=O)c2ccc(NC(=O)c3cccc(F)c3)cc2OC[C@H](C)NC[C@@H]1C | 1.08 ± 0.039
6 | O=C([C@@H]1[C@@H](CO)[C@@H]2Cn3c(cccc3=O)[C@@H]2N1C(=O)CC1CC1)N1CCc2ccccc2C1 | 1.04 ± 0.031
7 | CC[C@H]1C/C=C/C[C@H](C)Oc2ccccc2C(=O)N(C)[C@@H](C)C(=O)N1.CC[C@H]1C/C=C\C[C@H](C)Oc2ccccc2C(=O)N(C)[C@@H](C)C(=O)N1 | 1.12 ± 0.018
8 | CN1CCN(C(=O)C[C@@H]2CC[C@@H]3[C@H](COC[C@H](O)CN3C(=O)Nc3ccc4c(c3)OCO4)O2)CC1 | 1.07 ± 0.013
9 | C[C@@H]1CN([C@@H](C)CO)C(=O)c2cc(C3=CCCCC3)cnc2O[C@H]1CN(C)S(=O)(=O)c1cn(C)cn1 | 1.04 ± 0.015
10 | CCCC(=O)Nc1ccc2c(c1)C(=O)N(C)[C@@H]1CC[C@H](CC(=O)NCc3cccc(F)c3)O[C@H]1CO2 | 1.05 ± 0.1
11 | Cc1ccc(S(=O)(=O)N(C)C[C@H]2OCCCC[C@H](C)Oc3ccc(NC(=O)c4ccncc4)cc3C(=O)N([C@@H](C)CO)C[C@H]2C)cc1 | 1.076 ± 0.0071
12 | CO[C@@H]1CN(C)C(=O)c2cc(NC(=O)c3ccc(F)cc3)ccc2OC[C@H](C)N(C(=O)CC2CC2)C[C@@H]1C | 1.12 ± 0.069
13 | OC[C@H]1[C@@H]2c3ccccc3NC[C@@H]2N1CC1CCOCC1 | 1.02 ± 0.072
14 | CCS(=O)(=O)N1C[C@@]2(C1)CN([C@H](CO)c1[nH]c3cc(OC)ccc3c21)C(=O)c1ccc(F)cc1 | 1.05 ± 0.045
15 | N#Cc1cccc(-c2ccc([C@@H]3[C@H]4CNC[C@@H]3N4Cc3cc(F)ccc3F)cc2)c1 | 0.861 ± 0.057
16 | Cc1noc(C)c1NC(=O)Nc1ccc2c(c1)C(=O)N(C)[C@@H]1CC[C@@H](CC(=O)N[C@@H]3CCN(Cc4ccccc4)C3)O[C@H]1CO2 | 1.06 ± 0.059
17 | COCC(=O)N1[C@H](CO)[C@@H](c2ccc(C#CCC3CCCC3)cc2)[C@@H]1C#N | 1.13 ± 0.11
18 | CC(C)NC(=O)N1[C@H](CO)[C@@H](c2ccccc2)C12CN(C(=O)c1ccccn1)C2 | 1.11 ± 0.021
19 | O=C(C[C@H]1CC[C@H](NC(=O)c2ccc3c(c2)OCO3)[C@@H](CO)O1)NCc1ccc(Oc2ccccc2)cc1 | 1.17 ± 0.013
20 | CN(C)C(=O)c1cccc(-c2ccc([C@@H]3[C@@H](CO)N4C(=O)CN(C(=O)C5CCC5)C[C@@H]34)cc2)c1 | 0.998 ± 0.032
21 | CCCNC(=O)N1C[C@]2(CCN(Cc3cccc(OC)c3)CC2)c2c([C@@H]1CO)n(C)c1cc(OC)ccc21 | 1.01 ± 0.17
22 | CCCN(C)C[C@@H]1OCCCC[C@@H](C)Oc2ccc(NC(=O)CCCN(C)C)cc2C(=O)N([C@H](C)CO)C[C@@H]1C | 1.12 ± 0.092
23 | CCCNC(=O)Nc1ccc2c(c1)OC[C@H](C)N(C(=O)C1CCOCC1)C[C@@H](C)[C@@H](OC)CN(C)C2=O | 1.01 ± 0.087

Row | SMILES | viability index
24 | CO[C@H]1CN(C)C(=O)c2cc(NC(=O)c3ccc(Oc4ccccc4)cc3)ccc2OC[C@H](C)NC[C@H]1C | 1.04 and 1.05
25 | COc1ccccc1NC(=O)N1[C@H](CO)[C@H](c2ccccc2)[C@@H]1C#N | 1.09 ± 0.038
26 | O=C(CN1CCOCC1)N1CC[C@@H]2[C@H]1c1cc(Br)ccc1N[C@@H]2CO | 0.914 ± 0.051
27 | C[C@@H]1CN([C@@H](C)CO)C(=O)CCCn2nncc2CO[C@H]1CN(C)C(=O)Nc1ccccc1C(F)(F)F | 1.04 ± 0.089
28 | COc1ccc2c3c([nH]c2c1)[C@H](CO)N(CC1CC1)C[C@]31CN(C1)C(=O)c1ccc(F)cc1 | 0.9972 ± 0.0017
29 | COc1ccccc1NC(=O)N1C[C@@H]2[C@H](c3ccccc31)[C@H](CO)N2CC1CCOCC1 | 1.06 ± 0.062
30 | C[C@@H]1CN([C@H](C)CO)C(=O)CCCn2nncc2CO[C@@H]1CN(C)C(=O)c1ccc(N2CCN(C)CC2)cc1 | 0.967 ± 0.011
31 | CCCNC(=O)N1[C@@H](CO)[C@@H]2c3ccccc3N(C(=O)Nc3cccc(Cl)c3)C[C@@H]21 | 1.054 ± 0.0044
32 | Cc1ccccc1-c1ccc([C@@H]2[C@H](CO)N3C(=O)CN(C(=O)c4ccncc4)C[C@@H]23)cc1 | 1.04 ± 0.041
33 | O=S(=O)(c1ccc(F)cc1)N1C[C@@H]2N[C@H](C1)[C@H]2c1ccc(/C=C/c2ccccc2)cc1 | 1.04 ± 0.055
34 | CC(C)NC(=O)N(C)C[C@H]1Oc2ccc(NC(=O)Cc3ccccc3)cc2CC(=O)N([C@H](C)CO)C[C@@H]1C | 0.945 ± 0.15
35 | CO[C@@H]1CC[C@@H]2CCN(C)C(=O)[C@@H](C)N(C)C(=O)c3cccc(C#N)c3OC[C@H]1O2 | 0.993 ± 0.041
36 | N#C[C@@H]1[C@@H](c2ccc(-c3cccc(F)c3)cc2)[C@H](CO)N1C(=O)NC1CCCC1 | 0.935 ± 0.064
37 | C[C@@H]1CN([C@H](C)CO)C(=O)c2cccc(NC(=O)c3ccncc3)c2O[C@@H]1CN(C)Cc1ccc2c(c1)OCO2 | 0.966 ± 0.0098
38 | COc1ccc(-c2ccc([C@H]3[C@H]4CNC[C@@H]3N4S(=O)(=O)Cc3ccccc3)cc2)cc1 | 1.07 ± 0.011
39 | CC(=O)NC[C@@H]1[C@@H](c2ccc(C3=CCCC3)cc2)[C@H](CO)N1Cc1cccnc1 | 1.04 ± 0.046
40 | O=C(C[C@H]1C=C[C@H](NC(=O)c2ccncc2)[C@H](CO)O1)NCC1CC1 | 1.09 ± 0.065
41 | CC(C)CC#Cc1ccc([C@@H]2[C@@H](CO)N3C(=O)CN(C(=O)c4ccccn4)C[C@@H]23)cc1 | 1.04 ± 0.036
42 | COc1ccc(-c2ccc3c(c2)[C@H]2[C@H](CCN2C(=O)Nc2ccccc2OC)[C@H](CO)N3C)cc1 | 0.897 ± 0.011
43 | CN1C(=O)c2cc(NC(=O)Cc3cccs3)ccc2OC[C@@H]2O[C@H](CC(=O)NCC3CCCCC3)CC[C@H]21 | 1.15 ± 0.05
44 | COc1cccc(NC(=O)N[C@@H]2CC[C@@H](CC(=O)N3CCN(C)CC3)O[C@@H]2CO)c1 | 1.11 ± 0.06
45 | C/C=C/c1ccc([C@@H]2[C@H](CO)N3CCCCN(S(=O)(=O)c4ccc(OC)cc4)C[C@@H]23)cc1 | 1.03 ± 0.014
